# Experimental data as given in PubChem BioAssay AID651820 (National Center for Advancing Translational Sciences (NCATS), 2012).
# In all, about 340,000 compounds went through this assay and about 12,000 (3.5%) were called active. This list was built around the results that the source calls inconclusive (neither active nor inactive); the mix of calls is not that of the screen. Calls follow the shape of the dose curve; as a rule, active = well fitted inhibition curve with a large enough effect; inconclusive = small, poorly fitted or top-dose-only effect, or another doubt; inactive = no such curve, though single readings can be large or run the other way. Potencies of inconclusive entries are left out as doubtful fits.
# Assay: qHTS Assay for Inhibitors of Hepatitis C Virus (HCV)
# Settings: Huh7.5.1 HCVcc-Cre (HCVcc is cell-culture hepatitis C virus) infection, luciferase reporter, 44 h; activity change, negative = inhibition: at 41.8 µM (top of the series) unless noted
# Method in brief: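 Whole-lifecycle infectious HCVcc-Cre system; cells 1,000/well, compound then virus (~0.5 moi) added 4 h after plating, 44 h culture. Luciferase read 15 sec following 15 min substrate incubation, room temp.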
# % is scaled to controls: 0 for no effect and ±100 for the full control effect; potency is read from the fitted curve at half-maximal effect; tags tell the direction and shape of the fitted curve.
SMILES,"activity change, negative = inhibition",Potency
CC1(c2nnc(Cc3ccccc3)o2)CC(c2ccccc2Br)=NO1 (stereo unspecified),inactive: 0.503%,
O=S(=O)(c1cccc(-c2nc3ccccc3s2)c1)N1CCCC1,,"inconclusive [inhibitor, single point]"
COc1ccccc1NC(=O)c1ccc(NC(=O)c2cc3c(s2)CCC3)cc1,,active: 8.91 µM
COc1ccc(-c2cc(CNC(=O)CCl)on2)cc1,,"inconclusive [inhibitor, full curve]"
CCOC(=O)c1c(NC(=S)Nc2ccc(Cl)cc2)sc2c1CCN(C)C2,,"inconclusive [inhibitor, partial curve]"
Cc1cc(C)c2nc(NNC(=O)c3ccc(S(=O)(=O)N4CCc5ccccc5C4)cc3)sc2c1,,active: 4.47 µM
O=C1S/C(=C\c2ccc(N3CCOCC3)o2)C(=O)N1Cc1c(F)cccc1Cl,,"inconclusive [inhibitor, full curve]"
Cc1ccc(S(=O)(=O)CCC(=O)Oc2ccc3c(C)cc(=O)oc3c2)cc1,inactive: 2.36%,
CCOc1ccc(-c2c(C(=O)N/N=C/C3CC=CCC3)nnn2-c2nonc2N)cc1 (stereo unspecified),inactive: 11.4%,
OC(CNc1ccccc1)COc1ccc(OCC(O)CNc2ccccc2)cc1 (stereo unspecified),,"inconclusive [inhibitor, single point]"
Cc1cc(C(=O)NNC(=O)CCCOc2ccccc2)c(C)o1,inactive: 2.48%,
O=C(O)/C=C/c1ccccc1[N+](=O)[O-],inactive: 6.22%,
CCC(C)(C)NC(=S)Nc1ccc(-c2nc3ccc(C)cc3s2)cc1,inactive: -21.4%,
Cc1ccccc1NC(=O)CCCCCN1C(=O)[C@@H]2Cc3ccccc3CN2C1=O,inactive: 0.632%,
CC(C)(C)c1ccc(C(=O)NCC(=O)OCc2ccc([N+](=O)[O-])cc2)cc1,inactive: 16.1%,
COc1cc(/C=C(\C#N)c2ccccn2)ccc1OCC(=O)Nc1c(Cl)cccc1Cl,,"inconclusive [inhibitor, full curve, poor fit]"
COc1cccc(-n2nnc3c(=O)n(Cc4ccccc4F)cnc32)c1,,"inconclusive [inhibitor, single point]"
O=C(c1ccc(Cn2c(=S)[nH]c3ccc(N4CCOCC4)cc3c2=O)cc1)N1CCN(c2ccc(F)cc2)CC1,,"inconclusive [inhibitor, full curve]"
CCOc1cc(C2C(C#N)=C(N)Oc3n[nH]c(CC)c32)ccc1OCCN1CCOCC1 (stereo unspecified),inactive: 0.517%,
Cc1ccc2nc(-c3ccc(NC(=O)C4CCCO4)cc3)[nH]c2c1 (stereo unspecified),inactive: -26.1%,
O=C(COC(=O)c1ccc(NS(=O)(=O)c2cccs2)cc1O)Nc1ccc(F)cc1,,"inconclusive [inhibitor, single point]"
